Source: the supplement of paper PMC3334620
In all, about 33,000 sequences were measured (“E-score (-0.5 to 0.5)”: median about -0.01, highest 2% from about 0.26 on). This is one part of the list.

Molecular target: Ste12 (UniProt P13574)
Test: PBM E-score (8-mer binding enrichment) (E-score (-0.5 to 0.5)); higher = stronger / more preferred TF binding; most listed sequences are background and not binding sites
Details: protein concentration: 200 nM; construct: GST-DNA-binding domain
Summary of the method: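 Each ungapped eight-base word and its reverse complement, pooled, received an E-score from the Universal PBM Analysis Suite. Underlying scans, normalised with masliner, recorded fluorescent anti-GST bound to GST-tagged yeast transcription factors. These were applied at about 100-200 nM to universal all-10-mer Agilent arrays double-stranded by primer extension.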

Sequence	PBM E-score
AAGACTTC	-0.141
GACCATGC	-0.139
GTAATGGA	-0.00779
GCCTGACC	-0.161
AGGTGAGC	0.03
ACCCCCTG	-0.291
AGTGGTGC	-0.172
ACCGTGGA	0.00515
CAGTAAGA	0.12
CCGACGAA	0.225
ACTCACGG	0.0185
GCCTAGGC	0.123
ACGTCTAG	-0.124
CCTGGCTC	-0.105
AGTGACCG	-0.0864
CGTGGCAG	-0.0888
GTTAGGGA	-0.0714
CGCGTGGA	-0.217
ACCACGCG	0.0389
ATAGTGGG	-0.0619
ACTAAACA	0.208
CGTCATTA	-0.0247
AACCAACA	0.0317
ATCATCCC	-0.0439
CGTTTATC	0.158

Sequence	PBM E-score
GTCAACCA	-0.0406
ATGACGAC	-0.0688
GGGGTCAA	-0.00447
AAACGAGA	0.122
AATGCTTA	-0.0299
CGCCCGCA	0.0259
CACGCTAA	-0.0383
AGTGCCTG	-0.0408
AGCATGCC	-0.114
GGAAGTCA	0.0608
GCCCCCTA	-0.322
AGATCGAG	0.0012
GCTGCCCC	-0.00836
AGGCATGG	-0.0351
ACCCATAA	0.0672
CAGTTAAC	0.0481
CGGACTGC	-0.162
AATGCATG	0.084
ATTGAGCG	0.0537
CGTAAATA	0.0849
ATTTTCCG	0.318
ATTCGTTA	0.199
AATCTTGA	-0.022
GTCGATCA	-0.0573
GGTTTCAA	0.416

Sequence	PBM E-score
GCCCGGTA	-0.128
ACTTTCTC	0.0795
CCAATCGA	0.067
GATACTTA	-0.0466
AACATAAG	0.289
CACTCAGG	-0.0356
AACCCACC	0.213
GACACCGA	0.0306
AGCAGCTA	-0.221
ACTGTTTA	0.165
AGTCTCAG	0.0505
ATCTACTA	0.152
AAGCCATG	-0.22
ATGTTAAC	0.0699
CTTCCAAG	-0.112
GTTGCATA	-0.00189
ATCTCGCG	0.0408
GAGCACAC	-0.265
CAACTGGG	-0.103
GATCCCCA	0.0544
CGAATCTA	0.0242
TGGCAGAA	0.164
CCCTGTTC	-0.243
AAACTCCC	0.00124
AAGATTAG	0.0478

Sequence	PBM E-score
CTTCAACC	0.0218
GCAGGCCC	-0.0254
ATATGGAC	0.00562
CCCATTCC	-0.178
ATGAAATA	0.144
GGGTAGAA	0.0664
ACCCAACG	0.237
ATCCATAC	0.104
GGGAGTAC	-0.12
TGAACTCA	-0.106
GCCCTGAA	0.0135
AATCGCTA	0.0223
CCTAAAGC	-0.0262
CAGTTGAC	-0.0391
CCGCGCCA	0.0646
GCGTTGAA	0.114
AATAGAAC	0.00631
CTAGTAGA	0.129
CACGGCCC	-0.117
CTTGGGAA	0.00119
AGCGCCCG	-0.15
ACACCGTC	-0.0861
ACGATGCT	-0.0622
AACTAGAA	0.142
GTCAGGAC	-0.14

Sequence	PBM E-score
CCTAACCC	-0.281
GCCTTAGC	-0.0576
GTGGTCTA	-0.162
GATGTCCC	-0.062
ATTTTCGA	-0.0166
CAATGGTC	0.0803
CAAATCCG	-0.0471
GAACACAC	-0.0544
CAGCAGGA	0.0817
AACCGGGA	0.0767
AAGGGAAG	0.0343
CTTGGTCC	-0.156
CACAACAG	-0.139
AGAATACG	0.162
AAAGGTTC	-0.154
TCAGTGCA	0.0371
AATTAACA	0.152
TGGCGACA	-0.155
TAAAACTA	0.136
ATCCGGGG	0.0794
ATAATGGC	-0.00614
GTCGAAAA	0.0735
AATGCTCC	-0.0685
AGCCTGGG	-0.0222
CAACCTAG	0.133

Sequence	PBM E-score
CAGTCCCA	-0.0439
AGAAGTTC	-0.0361
CTATACGC	-0.0471
CTGCTTCC	-0.0572
GGGGGACC	-0.0664
CGATCTAA	0.113
AACCCAGT	0.0131
AAAGCATT	-0.0706
CCATGCAA	0.25
GCGACTAC	-0.089
ACAACTCC	-0.0227
ACTGGCTG	-0.0806
AAGGTGTA	-0.0652
CACTGCCA	0.0649
AAATCCAG	0.0283
GTTCGTAA	0.0614
GTTGTCCA	-0.0323
AAGTACTC	-0.0263
CAATAGTA	0.121
AGAATGAT	0.231
CTTTAGTA	-0.0182
AGCTGTGA	-0.0616
GCGCCGGA	-0.0097
CGGCGATC	-0.0156
CCGGCAGA	-0.115

Sequence	PBM E-score
TCGGTGCA	-0.181
CTCACATA	0.127
TAGTGGAA	-0.162
TGAAGGCA	-0.018
CATGCATA	0.04
GCTTAACA	-0.0491
CGGCCCCA	-0.335
ATCGAGCC	-0.0583
GAGTCCTA	-0.179
ATAGGGTA	0.0604
AACTCCAC	0.0173
AAGGTCAA	0.0712
GCAGAGCA	-0.0242
CTTGCGAC	-0.128
ATTTGGAA	0.157
TAATTCCA	0.161
CTAGGATC	-0.105
AGATTAGC	-0.161
GTGCAGAA	0.129
AGAGACAG	-0.0163
GACCAGGC	-0.077
ACGCTTAT	0.0163
GTCACTTA	0.133
ATGGGCCG	0.0379
TTAATTAA	0.245

Sequence	PBM E-score
GACGCATC	-0.101
CCGCTGTA	0.198
CGCCCACG	-0.0917
CAATCGCA	0.13
ACGACTCA	-0.118
GGGAAGTA	0.0203
TCCCCGAA	-0.0273
GGTCCTAA	0.125
CGCCTAGA	-0.0727
CATAGGCA	-0.216
CAATGGGA	-0.134
ATGGTATC	0.0174
GTTATTGA	0.0312
ATGGTGTC	-0.00249
ACGATTCC	-0.00654
AGTATCTA	0.0936
CCTTAGGC	-0.192
AGTGTGCG	0.0476
ATTCGTCA	0.0529
ACCCTGAC	0.0373
GGATCTGA	0.151
GGTGGCTA	-0.232
TCCGCCCA	-0.107
AAATCCCA	0.0961
CCAACCGC	-0.0325

Sequence	PBM E-score
AAATATGC	-0.0267
GAATGGAC	-0.12
CCGTATTA	0.0394
TAGGTATA	0.124
TCCCTTAA	-0.0131
GTTGCAGA	-0.0899
TTCTACAA	0.202
CCGGGTCC	-0.226
TAATACAA	0.201
GATTATTA	0.196
AATTTAGA	0.0523
AAGATTAT	0.149
ACAATTAT	0.212
ATTTGTGG	0.174
ACCAGACT	-0.151
ACGAAGTG	0.0265
CCAGTTAC	-0.194
ATCCCAGG	-0.15
CCTAAAAA	0.124
